According to PubChem BioAssay AID540317 (National Center for Advancing Translational Sciences (NCATS), 2011):
Several values for one entry are separate records, joined by “and”; a condition that tells them apart may be missing. Equal entries are not always repeated. Among all 390,000 compounds or so, about 2,200 (0.56%) were called active. The inconclusive results got no clear call from the source; some entries with a clear call stand among them for comparison. Calls come from the whole dose curve; as a rule, active = well fitted inhibition curve with a large enough effect; inconclusive = small, poorly fitted or top-dose-only effect; inactive = no such curve, though single readings can be large or run the other way. Potencies beside an inconclusive call are fits to weak or partial responses and may not hold up.

Each compound was assayed against Chromobox protein homolog 1 (Homo sapiens) (UniProt P83916) (assay: HTS for Inhibitors of HP1-beta Chromodomain Interactions with Methylated Histone Tails). Details: AlphaScreen HP1-beta / biotin-H3K9me3 peptide binding; series mostly up to 114 µM.
How it was run: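 AlphaScreen: HP1-beta (50 nM) preformed 30 min with biotin-H3(1-18)K9me3 peptide (50 nM) in PBS pH 7.4, 0.01% Tween-20. Compound added for 30 min at RT, then streptavidin donor/nickel chelate acceptor beads (10 ug/mL) for 30 min.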
Note: nearly all actives have a fitted effect of over 70% in size.
Potency is the fitted concentration of half-maximal effect; tags give direction and shape of the fitted curve.

Sequence of UniProt P83916 (P83916 whole entry, looked up): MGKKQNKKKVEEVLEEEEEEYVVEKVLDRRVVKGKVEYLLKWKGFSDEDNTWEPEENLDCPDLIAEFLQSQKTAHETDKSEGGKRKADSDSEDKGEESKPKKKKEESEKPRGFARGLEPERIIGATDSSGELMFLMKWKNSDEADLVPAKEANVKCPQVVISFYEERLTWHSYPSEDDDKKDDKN

Structure (SMILES)	Potency
Cc1ccc(-c2nc3cc(C(C)C)ccc3o2)cc1NC(=O)c1cc2ccccc2o1	inactive
Cc1ccccc1CN1CCN(C(=O)c2ccco2)CC1	inconclusive: 20 µM [inhibitor, full curve]
N#Cc1ccccc1OCCCNC1CCCC1	inconclusive: 89.1 µM [inhibitor, single point]
CN(C)c1ccc(/C=N/NS(=O)(=O)c2ccc(Br)cc2)cc1	inconclusive: 39.8 µM [inhibitor, partial curve]
CC1=CC(C)(C)Nc2ccc(OC(=O)CCN3C(=O)c4ccccc4C3=O)cc21	inconclusive: 35.5 µM [inhibitor, partial curve]
Cc1cccc(NC(=O)C(=O)NCC(c2ccc3c(c2)OCO3)N2CCOCC2)c1C (stereo not given)	inactive
O=S(=O)(c1ccccc1C(F)(F)F)N1CCN(CC(O)COc2ccccc2F)CC1 (stereo not given)	inconclusive: 17.8 µM [inhibitor, full curve]
Cc1ccc(C)c(OCCCNC2CCCC2)c1C	inconclusive: 56.2 µM [inhibitor, partial curve, poor fit]
Cc1c(CCC(=O)NCCCn2ccnc2)c(=O)oc2c(C)c3oc4c(c3cc12)CCCC4	inconclusive: 89.1 µM [inhibitor, single point]
CCOc1cccc(=O)c2c(C)n(C)c(C)c12	inactive
Cc1ccc(N)cc1S(=O)(=O)N(C)C	inactive
COC(=O)C1CSc2[nH]c(=O)sc2C1c1ccc(O)c(OC)c1 (stereo not given)	inactive
Oc1c(N=Nc2ccc(F)cc2)ccc2ccccc12	active: 3.16 µM
CCN(CC)c1ccc(NC(=O)/C=C/c2cc(Br)ccc2OC)cc1	inconclusive: 12.6 µM [inhibitor, full curve]
Cn1c(SCc2n[nH]c(=S)n2-c2ccccc2)nnc1-c1ccccc1	inactive
COc1ccc(C(CCN2CCOCC2)c2c(OC)cc(OC)c3c(-c4ccccc4)cc(=O)oc23)cc1 (stereo not given)	inactive
Cc1ccc(O)c(N=Nc2nccs2)c1	inconclusive: 20 µM [inhibitor, full curve, poor fit]
c1ccc(-c2ccccc2OCCN2CCOCC2)cc1	active: 20 µM
Cc1c(C(=O)N(Cc2ccc(N(C)C)cc2)C2CCS(=O)(=O)C2)oc2ccccc12 (stereo not given)	inconclusive: 31.6 µM [inhibitor, partial curve]
COc1cc(C(CCN2CCOCC2)c2c(OC)cc(OC)c3c2OC(=O)CC3c2ccc(N(C)C)cc2)cc(OC)c1OC (stereo not given)	inconclusive: 39.8 µM [inhibitor, full curve] and inconclusive: 17.8 µM [inhibitor, full curve]
O=C(N/N=C/c1ccc(O)cc1)c1cccc(C(F)(F)F)c1	inactive
CCCN1C(=O)/C(=C/c2nc3ccccc3c(=O)[nH]2)c2ccccc21	inconclusive: 25.1 µM [inhibitor, partial curve, poor fit]
O=C(NNc1nc(-c2ccc(Cl)cc2)cs1)c1ccco1	inconclusive: 28.2 µM [inhibitor, partial curve, poor fit]
CC1(C)CC(=O)C2=C(C1)NC1=C(C(=O)c3ccccc31)C2c1ccccc1 (stereo not given)	active: 50.1 µM

Structure (SMILES)	Potency
Cc1c(-c2ccccc2)cn2c1-c1ccc(C)n1CC2	inconclusive: 31.6 µM [inhibitor, partial curve, poor fit]
CCNC(=S)N(CCc1c(C)[nH]c2ccccc12)Cc1cccnc1	inconclusive: 39.8 µM [inhibitor, single point]
CN1CCCN(Cc2ccccc2Br)CC1	inconclusive: 56.2 µM [inhibitor, partial curve, poor fit]
COc1ccc(NC(=S)N2CCN(CCN=CC3=C(O)CC(c4ccccc4)CC3=O)CC2)cc1 (stereo not given)	inconclusive: 28.2 µM [inhibitor, single point]
COc1ccc(C)c2sc(N(Cc3cccnc3)C(C)=O)nc12	inactive
NCCCCCC(=O)Nc1ccncc1	inactive
CN(C)c1ccc(C(c2ccc(N(C)C)cc2)c2ccc([N+](=O)[O-])cc2)cc1	active: 8.91 µM
S=C(Nc1ccc(Cl)cc1Cl)N1CCCCC1	inconclusive: 39.8 µM [inhibitor, single point]
COc1ccccc1-c1nc(C#N)c(N2CCC(Cc3ccccc3)CC2)o1	inconclusive: 3.55 µM [inhibitor, full curve, poor fit]
Cc1cc(C(=O)CN2C(=O)NC3(CCCC3)C2=O)c(C)n1-c1ccc2c(c1)OCO2	inconclusive: 70.8 µM [inhibitor, partial curve]
COc1ccc(OC)c(C(C[N+](=O)[O-])c2c(C)cc3ccccn23)c1 (stereo not given)	inconclusive: 39.8 µM [inhibitor, partial curve]
O=[N+]([O-])c1cccc(N=NN(CCO)c2cccc([N+](=O)[O-])c2)c1	inactive
Brc1ccc(C=Nc2ccc(Nc3ccccc3)cc2)s1	inconclusive: 15.8 µM [inhibitor, full curve, poor fit]
COc1ccc(C(C(=O)NCC2CCCO2)N(C(=O)Cn2nnc3ccccc32)c2ccc(NC(C)=O)cc2)c(OC)c1 (stereo not given)	inactive
COc1cc(C(c2c(C)[nH][nH]c2=O)c2c(C)[nH][nH]c2=O)ccc1OS(=O)(=O)c1ccc(C)cc1	inactive
CC(C(=O)Nc1ccccc1-c1ccccc1)N1CCN(S(=O)(=O)c2ccccc2)CC1 (stereo not given)	inconclusive: 39.8 µM [inhibitor, single point]
O=S(=O)(Nc1nc2ccccc2nc1Cl)c1ccc(F)cc1	inactive
CN1CCN(CC(=O)c2ccccc2F)CC1	inconclusive: 28.2 µM [inhibitor, partial curve]
COc1ccccc1N1CCN(CC(=O)N2CCCC2)CC1	inconclusive: 15.8 µM [inhibitor, full curve]
Cc1cccc(OCCCN2CCOCC2)c1C	inconclusive: 20 µM [inhibitor, full curve]
COc1ccc(NC(=S)NC(NC(C)=O)C(Cl)(Cl)Cl)c([N+](=O)[O-])c1 (stereo not given)	inconclusive: 20 µM [inhibitor, partial curve, poor fit]
O=C(Nc1cc(C(=O)N2CCCC2)ccc1N1CCCC1)c1ccccc1F	inactive
CCC(=O)c1cn([C@H](CCC(OC)OC)CC(=O)OC(C)(C)C)cc1CC	inconclusive: 39.8 µM [inhibitor, single point]
CCOC(=O)CN(C(=O)CSc1nnc(-c2ccncc2)n1CCCN(C)C)c1ccccc1	inconclusive: 39.8 µM [inhibitor, partial curve]

Structure (SMILES)	Potency
COc1ccc(N2CCN(CC(=O)c3ccc(O)cc3O)CC2)cc1	inactive
Cc1ccccc1NC(=O)Cn1c(=O)n(CCc2ccccc2)c(=O)c2sc3ccccc3c21	inactive
Cc1ccc(C(=O)CC(C(=O)O)c2cn(CCC#N)c3ccccc23)cc1 (stereo not given)	inconclusive: 31.6 µM [inhibitor, full curve]
COc1ccc(C2(C(=O)c3ccccc3)C(=O)c3ccccc3C2=O)cc1	inconclusive: 14.1 µM [inhibitor, full curve, poor fit]
CCNc1nc(NC(C)C)nc(Oc2ccc(/C=N/O)cc2)n1	inconclusive: 39.8 µM [inhibitor, single point]
CCCc1ccc(C2=Nn3c(nnc3C(C)C)SC2)cc1	inconclusive: 56.2 µM [inhibitor, partial curve, poor fit]
CN(C)c1ccc(/C=N/NC(=O)c2nonc2N)cc1[N+](=O)[O-]	inconclusive: 39.8 µM [inhibitor, full curve]
Cc1ccccc1NC(=O)CN1CCN(C)CC1	active: 28.2 µM
Cc1cccc(-n2[nH]c3c4c(ccc3c2=O)C(=O)c2ccccc2C4=O)c1	inactive
COc1ccc(S(=O)(=O)Nc2ccc(Oc3ncccn3)c(Cl)c2)cc1	inconclusive: 8.91 µM [inhibitor, single point]
COc1ccc(N2CCCC2)c(NC(=O)c2ccc(Br)o2)c1	inconclusive: 44.7 µM [inhibitor, partial curve, poor fit]
CCn1ccnc1CN(C)Cc1cn(-c2ccccc2)nc1-c1ccc(OC)cc1F	inactive
CC(C)(C)c1ccccc1OCCCCCn1ccnc1	inconclusive: 22.4 µM [inhibitor, full curve]
COCCNC(=O)C(c1ccc(C)cc1)N(C(=O)C(=O)NC1CCCC1)c1ccc2c(c1)OCCO2 (stereo not given)	inactive
CC1CCc2c(sc(NC(=O)c3ccc(Cn4cc([N+](=O)[O-])cn4)o3)c2C#N)C1 (stereo not given)	inconclusive: 22.4 µM [inhibitor, partial curve, poor fit]
COC(=O)c1ccc(N2CCC(C)CC2)c(N)c1	inconclusive: 8.91 µM [inhibitor, full curve]
Cc1ccc(C)c(S(=O)(=O)N2C(=S)NC(=O)C2C(C)C)c1 (stereo not given)	inconclusive: 14.1 µM [inhibitor, full curve]
Cc1cc(C)n(C(=O)CNC(=O)Cc2ccccc2)n1	inconclusive: 89.1 µM [inhibitor, partial curve, poor fit]
O=S(=O)(c1ccc(-c2n[nH]c(=S)o2)cc1)N1CCCCC1	inconclusive: 12.6 µM [inhibitor, partial curve, poor fit]
CCOc1cnc(-c2c(-c3ccccc3Cl)noc2C)o1	inconclusive: 39.8 µM [inhibitor, full curve]
C=CCn1c(CCNC(=O)c2cccs2)nnc1SCC(=O)c1ccc(Br)cc1	inactive
CN(c1ccccc1)S(=O)(=O)c1ccc(Cl)c(C(=O)OCC(=O)NCc2ccco2)c1	inconclusive: 39.8 µM [inhibitor, partial curve]
